Test results from article PMC12669651.
Results are given in words; binding and its absence hold for the method and conditions named. For part of these data: In cells and extracts the contact can be indirect. Some entries that bind do so weakly or less than the wild type. Blank lines part the entries; values can stand above or below the substance they belong to.

Chains of the proteins cited; added tags and fusions are not shown. Lines headed by an entry give the natural chain unless they say otherwise; changes in a name come on top. A line that says so, or that is headed by a name, gives the form on record, which may keep a tag or linker. Residues count along the entry.
UniProt Q14258: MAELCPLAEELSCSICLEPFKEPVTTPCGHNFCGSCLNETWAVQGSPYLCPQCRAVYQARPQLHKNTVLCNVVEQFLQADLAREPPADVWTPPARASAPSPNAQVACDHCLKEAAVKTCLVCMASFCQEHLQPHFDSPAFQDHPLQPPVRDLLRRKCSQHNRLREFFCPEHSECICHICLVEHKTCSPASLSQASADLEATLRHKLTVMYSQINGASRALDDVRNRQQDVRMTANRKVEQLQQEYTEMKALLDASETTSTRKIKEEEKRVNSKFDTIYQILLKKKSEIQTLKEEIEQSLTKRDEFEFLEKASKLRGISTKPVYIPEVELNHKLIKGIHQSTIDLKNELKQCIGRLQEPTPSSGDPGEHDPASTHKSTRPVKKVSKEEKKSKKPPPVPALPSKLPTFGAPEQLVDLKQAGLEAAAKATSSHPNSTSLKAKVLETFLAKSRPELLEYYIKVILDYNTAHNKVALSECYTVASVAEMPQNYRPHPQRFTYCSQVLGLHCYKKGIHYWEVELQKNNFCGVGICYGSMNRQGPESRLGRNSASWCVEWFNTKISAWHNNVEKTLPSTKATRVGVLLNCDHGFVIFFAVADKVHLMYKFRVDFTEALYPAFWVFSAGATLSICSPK
Flag-TRIM25(Δ439-630aa): residues 1-438 of Q14258
UniProt Q61510: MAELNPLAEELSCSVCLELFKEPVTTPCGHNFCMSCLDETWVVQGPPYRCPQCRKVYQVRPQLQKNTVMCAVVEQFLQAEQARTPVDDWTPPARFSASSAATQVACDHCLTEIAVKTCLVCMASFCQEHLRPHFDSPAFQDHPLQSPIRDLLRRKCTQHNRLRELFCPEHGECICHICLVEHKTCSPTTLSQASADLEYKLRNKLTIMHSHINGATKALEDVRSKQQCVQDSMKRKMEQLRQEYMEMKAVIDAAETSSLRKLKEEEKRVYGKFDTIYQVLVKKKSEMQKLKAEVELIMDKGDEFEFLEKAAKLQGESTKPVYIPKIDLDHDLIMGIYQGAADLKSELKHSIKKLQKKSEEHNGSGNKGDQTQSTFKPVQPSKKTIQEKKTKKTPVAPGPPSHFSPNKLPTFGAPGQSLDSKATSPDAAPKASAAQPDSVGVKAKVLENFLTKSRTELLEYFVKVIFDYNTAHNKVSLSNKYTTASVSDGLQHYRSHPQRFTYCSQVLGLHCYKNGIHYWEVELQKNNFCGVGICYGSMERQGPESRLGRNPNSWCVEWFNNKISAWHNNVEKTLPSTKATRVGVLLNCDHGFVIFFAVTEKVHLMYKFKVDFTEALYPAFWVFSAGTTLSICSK
UniProt P15104: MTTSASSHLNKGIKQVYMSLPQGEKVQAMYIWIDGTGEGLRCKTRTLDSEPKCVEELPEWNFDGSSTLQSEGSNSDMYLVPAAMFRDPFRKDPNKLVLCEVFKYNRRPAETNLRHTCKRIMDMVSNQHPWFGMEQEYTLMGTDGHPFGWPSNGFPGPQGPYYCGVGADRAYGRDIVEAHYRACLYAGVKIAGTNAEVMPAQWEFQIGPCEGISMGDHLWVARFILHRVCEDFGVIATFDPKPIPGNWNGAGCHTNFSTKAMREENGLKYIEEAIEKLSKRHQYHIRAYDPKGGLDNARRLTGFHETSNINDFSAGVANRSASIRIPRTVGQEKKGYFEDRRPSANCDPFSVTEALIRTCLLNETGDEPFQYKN
UniProt P15105: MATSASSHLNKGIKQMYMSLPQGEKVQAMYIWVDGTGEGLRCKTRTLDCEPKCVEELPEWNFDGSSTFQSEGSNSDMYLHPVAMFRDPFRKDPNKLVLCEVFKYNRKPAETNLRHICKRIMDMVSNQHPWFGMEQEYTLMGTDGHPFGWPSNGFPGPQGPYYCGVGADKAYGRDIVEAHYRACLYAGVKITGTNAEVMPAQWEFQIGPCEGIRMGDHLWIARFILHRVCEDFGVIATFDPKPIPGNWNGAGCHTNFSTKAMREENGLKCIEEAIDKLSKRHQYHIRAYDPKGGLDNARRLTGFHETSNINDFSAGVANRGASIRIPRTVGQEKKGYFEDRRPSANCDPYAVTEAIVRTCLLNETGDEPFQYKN
UniProt Q91YN5: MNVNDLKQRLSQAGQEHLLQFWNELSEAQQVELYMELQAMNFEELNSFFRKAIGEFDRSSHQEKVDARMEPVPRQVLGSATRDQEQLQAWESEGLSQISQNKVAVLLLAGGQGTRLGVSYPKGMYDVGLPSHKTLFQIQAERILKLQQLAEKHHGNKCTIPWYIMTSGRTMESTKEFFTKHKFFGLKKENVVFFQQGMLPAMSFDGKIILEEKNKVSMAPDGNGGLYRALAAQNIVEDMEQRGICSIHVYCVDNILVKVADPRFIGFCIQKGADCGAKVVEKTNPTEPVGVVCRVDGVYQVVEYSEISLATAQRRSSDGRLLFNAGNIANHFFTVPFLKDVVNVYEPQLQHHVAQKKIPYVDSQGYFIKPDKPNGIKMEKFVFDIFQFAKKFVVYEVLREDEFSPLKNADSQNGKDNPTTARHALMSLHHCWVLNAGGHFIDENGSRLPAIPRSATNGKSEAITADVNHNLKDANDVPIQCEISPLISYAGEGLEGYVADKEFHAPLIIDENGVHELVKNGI
UniProt Q16222: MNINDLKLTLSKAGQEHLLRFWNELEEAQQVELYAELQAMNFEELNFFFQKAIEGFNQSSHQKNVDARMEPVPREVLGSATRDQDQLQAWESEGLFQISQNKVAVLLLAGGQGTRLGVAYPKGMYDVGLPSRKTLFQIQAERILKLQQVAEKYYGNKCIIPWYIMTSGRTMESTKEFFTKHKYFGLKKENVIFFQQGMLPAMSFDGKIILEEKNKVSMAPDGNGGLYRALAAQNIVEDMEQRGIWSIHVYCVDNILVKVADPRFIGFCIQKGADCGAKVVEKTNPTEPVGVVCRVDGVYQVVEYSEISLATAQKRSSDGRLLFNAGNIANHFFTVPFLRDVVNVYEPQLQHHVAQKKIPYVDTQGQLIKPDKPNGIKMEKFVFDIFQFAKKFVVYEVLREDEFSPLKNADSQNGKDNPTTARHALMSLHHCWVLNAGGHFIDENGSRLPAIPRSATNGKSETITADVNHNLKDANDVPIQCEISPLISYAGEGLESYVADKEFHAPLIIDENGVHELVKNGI
UAP1 (NM_003115) Human Recombinant Protein (Q16222-2, form named): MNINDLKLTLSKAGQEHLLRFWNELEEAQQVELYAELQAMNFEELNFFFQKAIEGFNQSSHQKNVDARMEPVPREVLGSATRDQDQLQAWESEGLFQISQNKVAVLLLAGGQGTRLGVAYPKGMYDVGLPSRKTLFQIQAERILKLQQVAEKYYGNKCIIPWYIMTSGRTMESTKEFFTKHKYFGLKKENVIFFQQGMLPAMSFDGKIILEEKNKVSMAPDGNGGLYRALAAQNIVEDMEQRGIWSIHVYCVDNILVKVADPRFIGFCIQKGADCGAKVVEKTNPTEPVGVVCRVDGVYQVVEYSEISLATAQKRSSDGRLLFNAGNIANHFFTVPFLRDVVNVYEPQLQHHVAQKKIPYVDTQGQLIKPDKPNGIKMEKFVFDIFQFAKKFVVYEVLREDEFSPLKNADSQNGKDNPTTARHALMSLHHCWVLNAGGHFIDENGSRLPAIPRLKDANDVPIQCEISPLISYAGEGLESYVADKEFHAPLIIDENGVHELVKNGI

Legend:
Flag-TRIM25 full-length = Flag-TRIM25 full-length (UniProt Q14258); experiment: co-IP; HEK293T cells transfected with Flag-TRIM25 (full-length or truncated), Myc-UAP1 and HA-GLUL; Pierce IP lysis buffer, antibody overnight at 4 °C, Protein A&G beads, Western blot
Flag-TRIM25(Δ439-630aa) = Flag-TRIM25(Δ439-630aa) (UniProt Q14258); experiment: as above
[1] = target: TRIM25 (NM_005082) Human Recombinant Protein (human) (UniProt Q14258); experiment: SPR; Biacore T200; recombinant TRIM25 fixed on a Series S CM5 chip; analyte injected at 25 °C, 30 μL/min, 180 s association, 300 s dissociation; regeneration with 10 mM glycine-HCl; both purified
YFP(1-154aa)-TRIM25 = YFP(1-154aa)-TRIM25 (UniProt Q14258); experiment: split reporter; bimolecular fluorescence complementation in cells: TRIM25 carrying YFP (aa 1-154) with GLUL or UAP1 carrying YFP (aa 155-238)
[2] = target: endogenous TRIM25 (not stated (endogenous in BMSCs; mouse and human BMSCs are used in the paper)) (UniProt Q61510); experiment: co-IP; endogenous proteins in BMSCs; Pierce IP lysis buffer, antibody overnight at 4 °C, Protein A&G beads, Western blot

binding (Flag-TRIM25 full-length): binds
binding (Flag-TRIM25(Δ439-630aa)): no binding
Substance: HA-GLUL (from UniProt P15104 1-373) (enzyme)

binding (YFP(1-154aa)-TRIM25): binds
Substance: YFP(155-238aa)-GLUL (from UniProt P15104 1-373) (enzyme)

binding [2]: binds
Substance: endogenous GLUL (from UniProt P15105 1-373) (enzyme)

binding [2]: binds
Substance: endogenous UAP1 (from UniProt Q91YN5 1-522) (enzyme)

Continued, substance first:

Substance: Myc-UAP1 (from UniProt Q16222 1-522) (enzyme)
binding (Flag-TRIM25 full-length): binds
binding (Flag-TRIM25(Δ439-630aa)): no binding

Substance: UAP1 (NM_003115) Human Recombinant Protein (from UniProt Q16222-2 1-505) (enzyme)
binding [1]: binds

Substance: YFP(155-238aa)-UAP1 (from UniProt Q16222 1-522) (enzyme)
binding (YFP(1-154aa)-TRIM25): binds
